Measured values published in the supplement of paper PMC7826260.
This is one part of the list. Viral Rep nickase domains cut single-stranded DNA in vitro for 1 h at 37 °C with 3 µM enzyme; only the middle of the 90-letter strands is printed. Values are log2 of uncut reads against the no-enzyme pool; the lower, the more was cut; hits are not called. Shares of all reads are compared; uncut strands gain when others are lost, and binding without cutting may add a little.

test system: T1, Rep nickase domain of tomato golden mosaic virus; assay: uncleaved DNA left, log2 of reads against the no-enzyme library (log2 ratio); higher = less cleavage (more negative = more Rep cleavage of the k-mer); sequences stand for … in CTCGTCCG…ACCGGAGA
T1 sequence (protein, residues 1-124, tag omitted): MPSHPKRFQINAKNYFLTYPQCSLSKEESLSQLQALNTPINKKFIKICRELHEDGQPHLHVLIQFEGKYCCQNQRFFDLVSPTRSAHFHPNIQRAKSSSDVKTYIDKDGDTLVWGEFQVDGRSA
Procedure: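 A pool of 90-nt single-stranded DNAs with seven random bases just before the constant AC of the nick site (name = the seven bases) was cut by 3 µM recombinant His6-SUMO-tagged Rep nickase domain (300 nM DNA, 50 mM HEPES pH 8.0, 50 mM NaCl, 1 mM MnCl2, 1 h, 37 °C, three replicates). Uncut DNA was amplified and sequenced.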

Sequence	uncleaved DNA left (log2)
GACGCTC	-0.202
AGAATTA	0.0349
TGTAGTT	0.0389
GGACCTG	0.0128
CGTTTCG	-0.0108
TGACAAC	0.0404
AACAACC	-0.0127
ATTTGAC	0.0323
CAGTCAG	-0.0394
GTAAAAT	0.184
GCCCCCA	-0.0749
GGAACGT	0.0391
TAATTAC	-2.78
GGCTGTA	0.0854
GCAAGAC	0.0788
GACCTTT	-0.0558
TACTTCC	-0.161
TGTGTAA	0.114
CCACCCC	-0.194
GCGTAAA	-0.119

Sequence	uncleaved DNA left (log2)
GAAATAC	-0.0314
TGTCTAT	-0.121
GTGATGG	0.0213
AACCCAC	-0.198
AGTCACA	0.00573
AATTGGT	0.014
GATGTTC	0.0193
GGTTATC	0.0986
CCTACCT	-0.202
GGCGTTC	-0.0568
TATTAGG	-0.0464
TACCCCT	-0.321
TGCAGGG	0.0581
TCATATC	-0.19
CTTGAAT	0.0398
TTATAAT	-2.33
CACGATA	-0.0118
CATAGTG	-0.0125
CTCTATC	-0.237
GGAGGTG	0.0907
